From PubChem BioAssay AID588453 (National Center for Advancing Translational Sciences (NCATS), 2011)
Where “and” joins values, the source holds several entries; their conditions need not be identical. Identical values can stand only once. The campaign covered roughly 390,000 compounds. About 4,000 (1%) were called active. Inconclusive results, whose numbers are uncertain, are shown with a selection of clear calls. Calls follow the shape of the dose curve; as a rule, active = well fitted inhibition curve with a large enough effect; inconclusive = small, poorly fitted or top-dose-only effect; inactive = no such curve, though single readings can be large or run the other way. A potency beside an inconclusive call is a rough fit, not a confirmed value.
% is scaled to controls: 0 for no effect and ±100 for the full control effect; potency is read from the fitted curve at half-maximal effect; tags tell the direction and shape of the fitted curve.
Also: nearly all actives have a fitted effect of over 65% in size.

Each molecule was assayed against Thioredoxin reductase 1, cytoplasmic (Rattus norvegicus) (UniProt O89049) (assay: qHTS Assay for Inhibitors of Mammalian Selenoprotein Thioredoxin Reductase 1 (TrxR1): qHTS). Details: recombinant rTrxR1, NADPH fluorescence consumption, selenite substrate; series mostly up to 114 µM.
UniProt O89049, sequence (O89049 whole entry, looked up): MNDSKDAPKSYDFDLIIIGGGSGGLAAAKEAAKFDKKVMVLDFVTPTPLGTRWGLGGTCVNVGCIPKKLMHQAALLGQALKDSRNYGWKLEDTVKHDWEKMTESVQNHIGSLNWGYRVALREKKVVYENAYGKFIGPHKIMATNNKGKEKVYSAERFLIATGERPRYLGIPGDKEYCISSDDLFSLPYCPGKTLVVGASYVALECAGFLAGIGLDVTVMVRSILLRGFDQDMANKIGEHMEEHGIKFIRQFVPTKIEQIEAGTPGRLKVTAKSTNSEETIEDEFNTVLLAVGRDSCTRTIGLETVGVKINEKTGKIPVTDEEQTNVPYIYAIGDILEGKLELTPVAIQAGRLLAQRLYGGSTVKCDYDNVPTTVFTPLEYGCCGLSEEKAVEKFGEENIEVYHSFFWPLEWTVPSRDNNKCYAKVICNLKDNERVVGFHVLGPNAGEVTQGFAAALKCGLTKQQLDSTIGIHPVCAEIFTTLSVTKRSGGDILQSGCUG
How it was run: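 Rat TrxR1 (90 nM in the dispensed reagent) was pre-reduced with 400 uM NADPH for 5 min at room temperature, then incubated with compound for 15 min. After 400 uM selenite was added, NADPH fluorescence (Ex 340/Em 450 nm) was followed for 8 min.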
In the case of `O=C(NCCS(=O)(=O)c1ccc(Br)cc1)c1ccc(Cl)cc1`, the Potency is reported as “inactive”. With `COc1cc2[nH]c3c(N4CCN(c5ccc(Cl)cc5)CC4)ncnc3c2cc1OC` the Potency was “inactive”. For `CC(=O)N1N=C(c2ccc(Br)cc2)CC1c1cn(C)c2ccccc12` (stereo unspecified), the Potency was inconclusive: 70.8 µM [inhibitor, partial curve, poor fit]. `CC#CCN(Cc1ccco1)C(=O)c1ccc(OC2CCN(Cc3ccccn3)CC2)cc1` was tested, and the Potency was inconclusive: 56.2 µM [inhibitor, partial curve]. With `Cc1ccc(C(=O)N/C(=C/c2ccco2)C(=O)NCC2CCCO2)cc1` (stereo unspecified) the Potency was inconclusive: 79.4 µM [inhibitor, partial curve]. `COC(=O)c1sc(N2C(=O)C(O)=C(C(=O)c3ccc(C)o3)C2c2cccs2)nc1C` (stereo unspecified) was tested, and the Potency was inconclusive: 44.7 µM [inhibitor, partial curve]. With `COC(=O)c1cc(OC)c(OC)cc1NC(=S)Nc1cccc(Cl)c1` the Potency was inconclusive: 39.8 µM [inhibitor, single point]. For `CCCn1c(=N)c(C(=O)NC2CCCC2)cc2c(=O)n3cccc(C)c3nc21`, the Potency was inconclusive: 63.1 µM [inhibitor, single point] and inconclusive: 70.8 µM [inhibitor, partial curve, poor fit]. With `Cc1ccc(C2NC(=O)c3c(sc4c3CCN(C)C4)N2)o1` (stereo unspecified) the Potency was inconclusive: 15.8 µM [inhibitor, partial curve, poor fit]. For `CCn1c(=O)c2cc(C(=O)N(CC(C)C)CC(C)C)sc2c2ccccc21`, the Potency was inconclusive: 89.1 µM [inhibitor, single point]. With `CCCS(=O)(=O)Nc1c(C(=O)OC)[nH]c2ccccc12` the Potency was “inactive”. In the case of `COC(=O)c1c[nH]n2c(=O)cc(CCl)nc12`, the Potency is reported as inconclusive: 1.58 µM [inhibitor, partial curve, poor fit]. `CCOC(=O)c1cccc(NC(=O)Cn2c(=O)nc(-c3ccccc3F)c3cc(Cl)ccc32)c1` was tested, and the Potency was “inactive”. With `CN(CC(=O)Nc1ccc(S(N)(=O)=O)cc1)Cc1ccccc1F` the Potency was inconclusive: 100 µM [inhibitor, single point]. With `Cc1ccc2[nH]c3c(c2c1)CN(C(=O)CN1CCCc2ccccc21)CC3` the Potency was inconclusive: 12.6 µM [inhibitor, partial curve]. For `CC1CCN(CC(O)COC2CC(C)CCC2C(C)C)CC1` (stereo unspecified), the Potency was “inactive”. `O=C(O)CC(C(=O)O)N1C(=O)/C(=C/C=C/c2ccco2)SC1=S` (stereo unspecified) was tested, and the Potency was active: 20 µM. In the case of `CNc1nnc(-c2ccc(N(C)C)cc2)s1`, the Potency is reported as inconclusive: 63.1 µM [inhibitor, single point]. With `CCCOc1ccc(C(=O)CCN2CCN(C(=O)OCC)CC2)cc1` the Potency was active: 8.91 µM. `COC(=O)CSc1nc(C)c(C(=O)Nc2ccccc2C)c(-c2ccc(Cl)cc2)c1C#N` was tested, and the Potency was inconclusive: 31.6 µM [inhibitor, single point]. `O=C(CCCCn1c(=O)c2ccccc2n(Cc2ccc(Cl)cc2)c1=O)NCc1ccccc1Cl` was tested, and the Potency was “inactive”. With `CCn1c(SCC(=O)c2ccc(Cl)cc2)nnc1-c1ccoc1C` the Potency was inconclusive: 12.6 µM [inhibitor, partial curve, poor fit]. For `COC1=CC(=O)c2c(ccc3ncnc(N)c23)C1=O`, the Potency was inconclusive: 79.4 µM [inhibitor, partial curve, poor fit]. For `CCOc1ccc(C(c2c(O)nc(SC)[nH]c2=O)c2c(O)nc(SC)[nH]c2=O)cc1`, the Potency was active: 28.2 µM. With `Cc1cccc(NC(=O)c2ccc(C(=O)Nc3cccc(C)c3C)cc2)c1C` the Potency was “inactive”. With `CC(C)(C)CN1CCNC[C@H]1Cc1cccc2ccccc12` the Potency was inconclusive: 70.8 µM [inhibitor, partial curve]. `O=C(NC(=S)NNS(=O)(=O)c1ccccc1)c1cccnc1` was tested, and the Potency was active: 25.1 µM. With `CCOC(=O)C(=O)C1=C(N2CCOCC2)/C(=C\c2ccc(F)cc2)CC1` the Potency was inconclusive: 56.2 µM [inhibitor, single point]. In the case of `CCCS(=O)(=O)c1ncc(Cl)c(C(=O)N2CCN(c3ccc(OC)cc3)CC2)n1`, the Potency is reported as active: 8.91 µM. `CCOC(=O)C1CCN(C(=O)Nc2ccc3nc(-c4ccco4)c(-c4ccco4)nc3c2)CC1` was tested, and the Potency was active: 3.16 µM. In the case of `C=CCOc1cccc(C2/C(=C(/O)c3ccc(C)cc3)C(=O)C(=O)N2CCN2CCOCC2)c1` (stereo unspecified), the Potency is reported as inconclusive: 35.5 µM [inhibitor, partial curve, poor fit]. With `CCN(CC)C(=O)Cn1cc(C(=O)C(=O)N2CCN(C)CC2)c2ccccc21` the Potency was inconclusive: 39.8 µM [inhibitor, partial curve]. For `COc1cccc(C#Cc2c(CO)[nH]c3ccccc23)c1`, the Potency was inconclusive: 35.5 µM [inhibitor, single point]. For `COc1ccccc1NC(=O)N(Cc1ccco1)Cc1cc2cc(C)cc(C)c2[nH]c1=O`, the Potency was inconclusive: 1.41 µM [inhibitor, single point]. With `Oc1cccc(-c2nnc(-c3cccc(O)c3)nn2)c1` the activity change, negative = inhibition was inactive: 2.94% [at 11.4 µM]. `Cc1ccc(N=Cc2cccc(O)c2O)c(C)c1` was tested, and the Potency was active: 31.6 µM. With `COc1ccc(CNC(=S)Nc2ccc3nc(N4CCN(C)CC4)cc(C)c3c2)cc1` the Potency was inconclusive: 39.8 µM [inhibitor, single point]. With `CC(=O)c1cccc(NC2c3ncccc3C(=O)N2Cc2ccco2)c1` (stereo unspecified) the Potency was inconclusive: 10 µM [inhibitor, full curve, poor fit]. With `COc1ccccc1Nc1cc2cc(Br)ccc2c(=O)[nH]1` the Potency was inconclusive: 50.1 µM [inhibitor, partial curve, poor fit]. In the case of `COC(=O)C1C(O)C(C)C(O)C(C)(O)/C=C\C=C(/C)C(=O)Nc2c(C)c(OC(C)=O)c3c(c2O)C(=O)C(C)=C2OCOC(=C23)/C(C)=C/C(C)(O)C(O)C(C)C1O` (stereo unspecified), the Potency is reported as inconclusive: 89.1 µM [inhibitor, single point]. With `Cc1ccc(C(Nc2ccccn2)c2ccc3cccnc3c2O)cc1` (stereo unspecified) the Potency was inconclusive: 11.2 µM [inhibitor, full curve]. `Cc1cccc(Nc2nc(N)c([N+](=O)[O-])c(NCc3ccco3)n2)c1` was tested, and the Potency was “inactive”. With `O=C(c1ccc(-c2ccccc2)cc1)N1CCN(Cc2ccccn2)CC1` the Potency was inconclusive: 89.1 µM [inhibitor, single point]. For `CC(OC(=O)c1ccc(-c2ccc([N+](=O)[O-])cc2)o1)C(=O)NC(N)=O` (stereo unspecified), the Potency was inconclusive: 35.5 µM [inhibitor, partial curve]. In the case of `Cc1ccc(-c2nc3ccc(Cl)cn3c2Nc2ccc3c(c2)OCCO3)o1`, the Potency is reported as inconclusive: 56.2 µM [inhibitor, partial curve, poor fit]. For `Cc1ccc(Nc2nnns2)cc1C`, the Potency was “inactive”. With `Nc1c(C(=O)N2CCCCC2)sc(=S)n1-c1ccccc1` the Potency was inconclusive: 14.1 µM [inhibitor, partial curve, poor fit]. For `COc1ccc(CCNC(=O)CSCC(=O)Nc2cc(S(C)(=O)=O)ccc2Cl)cc1`, the Potency was inconclusive: 56.2 µM [inhibitor, partial curve, poor fit]. With `O=C(CN(c1cccc(C(F)(F)F)c1)S(=O)(=O)c1ccc(Cl)c([N+](=O)[O-])c1)NCc1ccccc1` the Potency was inconclusive: 39.8 µM [inhibitor, partial curve, poor fit]. With `Oc1cc2c(cc1O)CN(C(=S)NCCc1ccc(Cl)cc1)CCC2` the Potency was inconclusive: 141 µM [inhibitor, single point] and inconclusive: 56.2 µM [inhibitor, partial curve] and inconclusive: 3.36 µM [inhibitor, partial curve]. In the case of `CC(=O)Oc1ccc(N(C(C)=O)S(=O)(=O)c2ccc(C)cc2C)c2ccccc12`, the Potency is reported as “inactive”. For `N#CC1=C(N)OC2=C(C(=O)CCC2)C12CCC1(CC2)OCCO1`, the Potency was inconclusive: 25.1 µM [inhibitor, partial curve]. `CC(=O)/C=C1/C(=O)Nc2ccccc21` was tested, and the Potency was inconclusive: 20 µM [inhibitor, full curve]. For `CCOC(=O)c1ccc(NC(=S)NC2CC(C)(C)NC(C)(C)C2)cc1`, the Potency was inconclusive: 39.8 µM [inhibitor, partial curve]. For `COc1ccc(NC(=O)c2sc3nc(N4CCCC4)c4c(c3c2N)CC(C)(C)OC4)cc1`, the Potency was “inactive”. In the case of `Cc1c(Cl)cccc1NC(=O)CC(C(=O)O)C1CCCO1` (stereo unspecified), the Potency is reported as inconclusive: 39.8 µM [inhibitor, single point]. `CC(C)NC(=O)COc1coc(CN2CCN(Cc3ccccc3)CC2)cc1=O` was tested, and the Potency was “inactive”. In the case of `CC1(C)C[C@@H]1C(=O)N/C(=C\CCCCSC[C@H](N)C(=O)O)C(=O)O`, the Potency is reported as inconclusive: 70.8 µM [inhibitor, single point]. `COc1ccc(N2CC(NC(=O)/C=C\c3ccc(OC)c(OC)c3)CC2=O)cc1` (stereo unspecified) was tested, and the Potency was “inactive”. In the case of `CCc1ccc(N2CC(C(=O)Nc3ccccc3F)CC2=O)cc1` (stereo unspecified), the Potency is reported as inconclusive: 25.1 µM [inhibitor, partial curve, poor fit]. For `Cc1cc(C(=O)O)c2c(=O)n(C)c(=O)n(C)c2n1`, the Potency was “inactive”. In the case of `CCc1nnc(NC(=O)c2cc(-c3ccc(C)o3)nc3ccccc23)s1`, the Potency is reported as inconclusive: 15.8 µM [inhibitor, full curve, poor fit]. `O=c1c2ccccc2nnn1CSc1nnc2ccccn12` was tested, and the Potency was “inactive”. In the case of `O=C(Nc1ccccc1F)c1ccc([N+](=O)[O-])s1`, the Potency is reported as inconclusive: 1.78 µM [inhibitor, full curve, poor fit]. In the case of `CCC(C)(C)NC(=S)Nc1ccccc1C`, the Potency is reported as “inactive”. In the case of `Cc1coc2c1C(=O)C(=O)c1c-2ccc2c1CCCC2(C)C`, the Potency is reported as inconclusive: 17.8 µM [inhibitor, partial curve].
